According to a compilation of properties of binary mixtures (doi:10.1016/j.molliq.2021.116094):
The densities may have been worked out from excess volumes.

Assay: xn = mol fraction of the nth substance listed
Details: 101 kPa

Structure (SMILES): COCCCC[n+]1ccn(C)c1.NCC(=O)[O-] + O
- mass density (288.15 K, x1 = 0.8079): 1167.2 kg/m3
- mass density (288.15 K, x1 = 0.9018): 1168 kg/m3
- mass density (293.15 K, x1 = 0.8079): 1164.2 kg/m3
- mass density (293.15 K, x1 = 0.8684): 1164.6 kg/m3
- mass density (293.15 K, x1 = 0.9018): 1164.8 kg/m3
- mass density (293.15 K, x1 = 0.9376): 1165.1 kg/m3
- mass density (298.15 K, x1 = 0.8079): 1160.8 kg/m3
- mass density (298.15 K, x1 = 0.8371): 1161 kg/m3
- mass density (298.15 K, x1 = 0.8684): 1161.2 kg/m3
- mass density (298.15 K, x1 = 0.9018): 1161.4 kg/m3
- mass density (298.15 K, x1 = 0.9376): 1161.7 kg/m3
- mass density (303.15 K, x1 = 0.8079): 1157.1 kg/m3
- mass density (303.15 K, x1 = 0.8371): 1157.3 kg/m3
- mass density (303.15 K, x1 = 0.8684): 1157.5 kg/m3
- mass density (303.15 K, x1 = 0.9018): 1157.8 kg/m3
- mass density (303.15 K, x1 = 0.9376): 1158 kg/m3
- mass density (308.15 K, x1 = 0.8079): 1153.4 kg/m3
- mass density (308.15 K, x1 = 0.8684): 1153.8 kg/m3
- mass density (308.15 K, x1 = 0.9018): 1154.1 kg/m3
- mass density (313.15 K, x1 = 0.8371): 1150 kg/m3
- mass density (313.15 K, x1 = 0.8684): 1150.2 kg/m3
- mass density (313.15 K, x1 = 0.9018): 1150.4 kg/m3
- mass density (313.15 K, x1 = 0.9376): 1150.7 kg/m3
- mass density (318.15 K, x1 = 0.8079): 1146 kg/m3
- mass density (318.15 K, x1 = 0.8371): 1146.2 kg/m3
- mass density (318.15 K, x1 = 0.8684): 1146.4 kg/m3
- mass density (318.15 K, x1 = 0.9018): 1146.7 kg/m3
- mass density (323.15 K, x1 = 0.8079): 1142.4 kg/m3
- mass density (323.15 K, x1 = 0.8371): 1142.6 kg/m3
- mass density (328.15 K, x1 = 0.8079): 1138.5 kg/m3
- mass density (328.15 K, x1 = 0.8371): 1138.8 kg/m3
- mass density (328.15 K, x1 = 0.8684): 1139.1 kg/m3
- mass density (328.15 K, x1 = 0.9018): 1139.3 kg/m3
- mass density (328.15 K, x1 = 0.9376): 1139.6 kg/m3

Structure (SMILES): CC(N)C(=O)[O-].COCCCCn1cc[n+](C)c1 + O
- mass density (288.15 K, x1 = 0.801): 1161.7 kg/m3
- mass density (288.15 K, x1 = 0.8294): 1161.9 kg/m3
- mass density (288.15 K, x1 = 0.8618): 1162.1 kg/m3
- mass density (288.15 K, x1 = 0.9002): 1162.3 kg/m3
- mass density (288.15 K, x1 = 0.9343): 1162.4 kg/m3
- mass density (293.15 K, x1 = 0.801): 1158.1 kg/m3
- mass density (293.15 K, x1 = 0.8294): 1158.3 kg/m3
- mass density (293.15 K, x1 = 0.8618): 1158.5 kg/m3
- mass density (293.15 K, x1 = 0.9002): 1158.7 kg/m3
- mass density (293.15 K, x1 = 0.9343): 1158.8 kg/m3
- mass density (298.15 K, x1 = 0.8294): 1154.6 kg/m3
- mass density (298.15 K, x1 = 0.8618): 1154.8 kg/m3
- mass density (298.15 K, x1 = 0.9002): 1155 kg/m3
- mass density (303.15 K, x1 = 0.801): 1150.8 kg/m3
- mass density (303.15 K, x1 = 0.8294): 1151 kg/m3
- mass density (303.15 K, x1 = 0.8618): 1151.2 kg/m3
- mass density (303.15 K, x1 = 0.9343): 1151.5 kg/m3
- mass density (308.15 K, x1 = 0.801): 1147.1 kg/m3
- mass density (308.15 K, x1 = 0.8618): 1147.5 kg/m3
- mass density (308.15 K, x1 = 0.9002): 1147.7 kg/m3
- mass density (308.15 K, x1 = 0.9343): 1147.8 kg/m3
- mass density (313.15 K, x1 = 0.801): 1143.4 kg/m3
- mass density (313.15 K, x1 = 0.8294): 1143.6 kg/m3
- mass density (313.15 K, x1 = 0.8618): 1143.8 kg/m3
- mass density (313.15 K, x1 = 0.9343): 1144.2 kg/m3
- mass density (318.15 K, x1 = 0.801): 1139.7 kg/m3
- mass density (318.15 K, x1 = 0.8294): 1139.9 kg/m3
- mass density (318.15 K, x1 = 0.8618): 1140.1 kg/m3
- mass density (318.15 K, x1 = 0.9343): 1140.5 kg/m3
- mass density (323.15 K, x1 = 0.8294): 1136.3 kg/m3
- mass density (323.15 K, x1 = 0.8618): 1136.5 kg/m3
- mass density (323.15 K, x1 = 0.9002): 1136.7 kg/m3
- mass density (328.15 K, x1 = 0.801): 1132.3 kg/m3
- mass density (328.15 K, x1 = 0.9002): 1133 kg/m3
- mass density (328.15 K, x1 = 0.9343): 1133.2 kg/m3
